# Some of the results follow.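 How the source made its calls: active = permutation test q below 0.05 after Benjamini-Hochberg correction; inactive = q of 0.05 or more.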
# Test system: A549
# Assay: mean average precision of replicate retrieval against DMSO controls (Cell Painting phenotypic activity) (fraction (0-1)); higher = stronger, more reproducible morphological phenotype distinct from DMSO; extreme values may be limits of the assay
# Settings: 48 h; 5 µM
# 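Further: cosine similarity of well-level aggregated Cell Painting profiles ranks each compound's replicate wells against DMSO wells, four replicate plates, significance from 100,000 rank shuffles.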
row,Structure (SMILES),mean average precision
1,Cc1c(C)c2c(c(C)c1O)CC[C@@](C)(CCC[C@H](C)CCC[C@H](C)CCCC(C)C)O2,active: 0.809
2,Cc1ccc([N+](=O)[O-])cc1S(=O)(=O)N(C)C,active: 0.53
3,Cc1nn(C)c2nc(NNC(=O)Nc3cc(Cl)nc(Cl)c3)cc(C(C)C)c12,active: 1
4,CC(=O)c1ccc(S(=O)(=O)NC(=O)NC2CCCCC2)cc1,active: 0.931
5,c1cc(-c2cnn3cc(-c4ccc(N5CCNCC5)cc4)cnc23)c2cccnc2c1,active: 1
6,C=CC(=O)Nc1cccc(Nc2nc(Nc3ccc(OCCOC)cc3)ncc2F)c1,active: 1
7,COCCOC(=O)C1=C(C)NC(C)=C(C(=O)OC(C)C)C1c1cccc([N+](=O)[O-])c1 (configuration not stated),active: 0.542
8,O=c1n(CCCN2CCN(c3cccc(Cl)c3)CC2)nc2ccccn12,active: 0.785
9,CN1C(=O)N(c2cc(Cl)cc(Cl)c2)C(=O)[C@]12CN(Cc1cc(C(=O)O)cs1)C[C@H]2c1ccc(C#N)cc1,active: 0.488
10,C=C(NC(=O)C(=C)NC(=O)c1csc(C2=NC3c4csc(n4)C4NC(=O)c5csc(n5)C(C(C)(O)C(C)O)NC(=O)C5CSC(=N5)C(=CC)NC(=O)C(C(C)O)NC(=O)c5csc(n5)C3(CC2)NC(=O)C(C)NC(=O)C(=C)NC(=O)C(C)NC(=O)C(C(C)CC)NC2C=Cc3c(C(C)O)cc(nc3C2O)C(=O)OC4C)n1)C(N)=O (configuration not stated),active: 1
11,O=C1CCc2ccc(OCCCCN3CCN(c4cccc(Cl)c4Cl)CC3)cc2N1,active: 0.88
12,CCCC[C@@H](NC(=O)[C@@H](Cc1cn(C(=O)OC)c2ccccc12)NC(=O)[C@H](CC(C)(C)C)NC(=O)N1[C@H](C)CCC[C@@H]1C)C(=O)O,active: 0.276

# — the supplement of paper PMC11166567
